{
  "source": "paper PMC10726135",
  "note": "The list shows a part of the results. At the low end of the ranking the order means little. The protein was read in a cell extract, so binding may be indirect.",
  "data": [
    {"target": "T1, HNF4alpha2 (COS-7 nuclear extract) (UniProt P41235)", "T1 sequence": "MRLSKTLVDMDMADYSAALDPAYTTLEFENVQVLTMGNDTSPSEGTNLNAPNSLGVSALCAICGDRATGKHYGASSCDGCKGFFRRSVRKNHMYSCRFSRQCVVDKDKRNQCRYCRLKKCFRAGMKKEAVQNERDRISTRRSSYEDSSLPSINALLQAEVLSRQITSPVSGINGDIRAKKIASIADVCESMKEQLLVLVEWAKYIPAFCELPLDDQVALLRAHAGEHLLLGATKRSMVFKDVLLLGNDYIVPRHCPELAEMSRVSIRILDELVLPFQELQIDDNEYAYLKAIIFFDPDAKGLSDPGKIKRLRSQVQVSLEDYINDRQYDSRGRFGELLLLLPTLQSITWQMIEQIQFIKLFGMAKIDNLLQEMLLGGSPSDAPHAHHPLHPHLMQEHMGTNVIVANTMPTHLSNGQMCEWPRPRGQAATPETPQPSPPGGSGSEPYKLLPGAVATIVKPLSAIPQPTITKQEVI", "experiment": "protein-binding microarray", "settings": "COS-7 nuclear extract on double-stranded Agilent 4x180k PBM; binding buffer, salt, pH and temperature not given; high values mean tight binding; double strand, one strand shown; sequences stand for … in …GCCTAGGGAGATTAGAGTATCGGTCGA", "values": [
      {"sequence": "GCTGGACTTTCATCTGAGTCTCAGCAATTA", "binding signal (log2 normalized intensity)": 1.1},
      {"sequence": "TTTGTTTTTACAGACAGGCATGACAGAGTG", "binding signal (log2 normalized intensity)": 1.68},
      {"sequence": "TGAGCTGTGGTTAAGACTCAAAGTTCAGTC", "binding signal (log2 normalized intensity)": 2.94},
      {"sequence": "CTAATGGTACCATCTGCCACTCATAGAACT", "binding signal (log2 normalized intensity)": -1.12},
      {"sequence": "GGAGCTGAAACTATAAACTTGGTTACAGGA", "binding signal (log2 normalized intensity)": -1.09},
      {"sequence": "AGTAAAGGTCGTTCTATCGGAGAACGTTCC", "binding signal (log2 normalized intensity)": 0.386},
      {"sequence": "TCATCAGTGCCATTCATTAGTCCTGGTTTT", "binding signal (log2 normalized intensity)": 1.66},
      {"sequence": "ATATTGACTGCCCCAACGCCTCCTTTCATC", "binding signal (log2 normalized intensity)": 2.66},
      {"sequence": "TTAGAAGGCTCCCTGCTGCGGAGAGTTCCC", "binding signal (log2 normalized intensity)": -1},
      {"sequence": "GGAAAGGGAACTCCCTGACCCCTAGCACTT", "binding signal (log2 normalized intensity)": 3.36},
      {"sequence": "CAGAGTAACCATGGGGGCTCAGGGCCTCTC", "binding signal (log2 normalized intensity)": -1.04},
      {"sequence": "AGAATTTAAACCAAACAGAACAAAGTCCAG", "binding signal (log2 normalized intensity)": 3.46},
      {"sequence": "ATTTCTGTGGACTGCTCCAGTGGACATTGG", "binding signal (log2 normalized intensity)": 2.99},
      {"sequence": "TGATAAGCAAGATGACTTTGGTCTAGACAC", "binding signal (log2 normalized intensity)": 0.829},
      {"sequence": "ACTGTCCCAGCTGAGATTCAGAATAGTTAA", "binding signal (log2 normalized intensity)": -0.894},
      {"sequence": "TTCAAAGGAGTGTCTTTCTCCTTGAACACA", "binding signal (log2 normalized intensity)": 0.849},
      {"sequence": "AATCATGGGCCCACAGATGATCAAAGGTCA", "binding signal (log2 normalized intensity)": 7.06},
      {"sequence": "GAAGATTTGCGGCCATCTAGCTACAGGAGA", "binding signal (log2 normalized intensity)": -1.17},
      {"sequence": "CTCCAGGGAGAAACCTGCCAGGTGGACCAA", "binding signal (log2 normalized intensity)": 0.783},
      {"sequence": "AAGATATTATCTCTGTCTGTCAAGGCTTTT", "binding signal (log2 normalized intensity)": 1.11},
      {"sequence": "AGGTCGGTGGTATGTGTGTGCTTTAACAAG", "binding signal (log2 normalized intensity)": 1.68},
      {"sequence": "GGCGGGGTTTTCGGTTTTCAAATGAACCCG", "binding signal (log2 normalized intensity)": 2.96},
      {"sequence": "TTCTTGCTCTTTACCCCTGCAAGGATTGAT", "binding signal (log2 normalized intensity)": 1.98},
      {"sequence": "AGAAATCCACACAGCACTGACCTTTGAGAG", "binding signal (log2 normalized intensity)": 4.92},
      {"sequence": "AGTAAATCTCACATTCGTTAACATCAGCTG", "binding signal (log2 normalized intensity)": -0.325},
      {"sequence": "TGGGCTCGGCGCTCCGCTTACTCGGCCTGG", "binding signal (log2 normalized intensity)": -0.994},
      {"sequence": "TCCCAGGATGAGGCCGTTCTAGCCCTTTTT", "binding signal (log2 normalized intensity)": -0.918},
      {"sequence": "CCAATTGACCCTATCCACATTCAGCCCACT", "binding signal (log2 normalized intensity)": 0.683},
      {"sequence": "ACATTCCAGGGAACAAGGGGTGGATCTCTG", "binding signal (log2 normalized intensity)": -1.18},
      {"sequence": "TTGGGGGCCATGTCTCAGCCCAAGATCAAA", "binding signal (log2 normalized intensity)": -1.06},
      {"sequence": "CCTGGTGACCTTTGTTTGGTCAAATACCTA", "binding signal (log2 normalized intensity)": 2.9},
      {"sequence": "GCACAAGAGGGTGGGAGTTCAGGGGGTTGG", "binding signal (log2 normalized intensity)": -1.18},
      {"sequence": "GACCTTTGCCCTCTGGCCCTTAAAGGCTTT", "binding signal (log2 normalized intensity)": 6.99},
      {"sequence": "CACACACACAGCTTGGAGCTCCTTGTGAGC", "binding signal (log2 normalized intensity)": -1.19},
      {"sequence": "TCACAGGGAATTTCCAAAGAGCAGCTAGCT", "binding signal (log2 normalized intensity)": -1.12},
      {"sequence": "TCTCTGGCATGTATTTATCAACATTCTTTC", "binding signal (log2 normalized intensity)": 1.52},
      {"sequence": "CCTTTTATTCAGGAAGTCGCTTGCCAGTAT", "binding signal (log2 normalized intensity)": 1.3},
      {"sequence": "TTTTTGACTTACCATTTGCTGATAAGTAGG", "binding signal (log2 normalized intensity)": 0.249},
      {"sequence": "CAGCCAGGGTCAGGAGAAGCAGAACAGGTA", "binding signal (log2 normalized intensity)": -1.18},
      {"sequence": "CTGCTCATTTTTCCCCTGACAAGTATCTCG", "binding signal (log2 normalized intensity)": 1.77}
    ]}
  ]
}
